Experimental data as given in the supplement of paper PMC4967469.

How the values were obtained:
Experiment in all cases: Viability of human cancer cell lines after 72 h of drug (GDSC screen)
[1] = compound: CCc1cc2c(cc1N1CCC(N3CCOCC3)CC1)C(C)(C)c1[nH]c3cc(C#N)ccc3c1C2=O [CH5424802]; conditions: top dose 5.12 µM; top dose inferred
Procedure: (§1)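 Human cancer cell lines in 384-well plates, medium with 10% serum, drug for 72 h over a 256-fold dose range (nine 2-fold or five 4-fold steps up to the top dose). Adherent lines were fixed and stained with the nucleic acid dye Syto60, suspension lines read with resazurin; signal relative to control wells, capped at 0 and 100%. One two-parameter sigmoid per drug and line, fitted in a mixed model over all curves with the slope shared within a line.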

[2] = compound: CC(C)(C)OC(=O)Nc1ccc(-c2cc(C(=O)NCCCCCCC(=O)NO)no2)cc1 [CAY10603]; conditions: top dose 20 µM; top dose inferred
Procedure: as §1

[3] = compound: N#Cc1c(C2CCNCC2)cc(-c2c(O)cccc2OCC2CC2)nc1N [ACHP (KIN001-260)]; conditions: top dose 20 µM; top dose inferred
Procedure: as §1

Row | Cell Line | AUC [1] | IC50 [1] [µM] | AUC [2] | IC50 [2] [µM] | AUC [3] | IC50 [3] [µM]
1 | SU-DHL-6 (B-cell lymphoma, suspension) | 0.986 | > 5.12 | 0.2 | 0.224 | 0.765 | 5.61
2 | SU-DHL-16 (B-cell lymphoma, suspension) | 0.994 | > 5.12 | 0.026 | < 0.0781 | 0.729 | 4.51
3 | SUIT-2 (pancreas, adherent) | 0.974 | > 5.12 | 0.505 | 1.29 | 0.838 | 14.5
4 | SUP-B15 (lymphoblastic leukaemia, suspension) | 0.956 | > 5.12 | 0.286 | 0.32 | 0.946 | > 20
5 | SUP-HD1 (Hodgkin lymphoma, suspension) | 0.988 | > 5.12 | 0.329 | 0.427 | 0.868 | 16.8
6 | SUP-M2 (anaplastic large cell lymphoma, suspension) | 0.02 | < 0.02 | 0.312 | 0.431 | 0.911 | 16.3
7 | SUP-T1 (T-cell lymphoblastic leukaemia, suspension) | 0.907 | > 5.12 | 0.356 | 0.52 | 0.975 | > 20
8 | SW13 (adrenal gland, adherent) | 0.988 | > 5.12 | 0.984 | > 20 | 0.987 | > 20
9 | SW156 (kidney, adherent) | 0.974 | > 5.12 | 0.829 | 14.4 | 0.956 | > 20
10 | SW756 (cervix, adherent) | 0.982 | > 5.12 | 0.767 | 8.84 | 0.983 | > 20
11 | SW780 (bladder, adherent) | 0.986 | > 5.12 | 0.921 | > 20 | 0.986 | > 20
12 | SW837 (large intestine, adherent) | 0.979 | > 5.12 | 0.442 | 0.825 | 0.981 | > 20
13 | SW900 (lung squamous cell carcinoma, adherent) | 0.947 | > 5.12 | 0.679 | 4.31 | 0.978 | > 20
14 | SW954 (urogenital system, adherent) | 0.981 | > 5.12 | 0.356 | 0.498 | 0.952 | > 20
15 | SW962 (urogenital system, adherent) | 0.977 | > 5.12 | 0.576 | 2.13 | 0.951 | > 20
16 | SW1088 (glioma, adherent) | 0.982 | > 5.12 | 0.774 | 10.3 | 0.964 | > 20
17 | SW1116 (large intestine, adherent) | 0.986 | > 5.12 | 0.748 | 8.56 | 0.984 | > 20
18 | SW1417 (large intestine, adherent) | 0.957 | > 5.12 | 0.683 | 4.45 | 0.985 | > 20
19 | SW1463 (large intestine, adherent) | 0.977 | > 5.12 | 0.857 | > 20 | 0.978 | > 20

Row | Cell Line | AUC [1] | IC50 [1] [µM] | AUC [2] | IC50 [2] [µM] | AUC [3] | IC50 [3] [µM]
20 | SW1990 (pancreas, adherent) | 0.985 | > 5.12 | 0.975 | > 20 | 0.985 | > 20
21 | Saos-2 (osteosarcoma, adherent) | 0.981 | > 5.12 | 0.981 | > 20 | 0.981 | > 20
22 | SiHa (cervix, adherent) | 0.986 | > 5.12 | 0.987 | > 20 | 0.984 | > 20
23 | T47D (breast, adherent) | 0.932 | > 5.12 | 0.522 | 1.48 | 0.953 | > 20
24 | T98G (glioma, adherent) | 0.988 | > 5.12 | 0.613 | 2.5 | 0.978 | > 20
25 | T-T (oesophagus, adherent) | 0.984 | > 5.12 | 0.78 | 8.21 | 0.967 | > 20
26 | TALL-1 (T-cell lymphoblastic leukaemia, suspension) | 0.988 | > 5.12 | 0.545 | 1.65 | 0.986 | > 20
27 | TCCSUP (bladder, adherent) | 0.984 | > 5.12 | 0.636 | 3.14 | 0.984 | > 20
28 | TE-6 (oesophagus, adherent) | 0.984 | > 5.12 | 0.981 | > 20 | 0.977 | > 20
29 | TE-11 (oesophagus, adherent) | 0.989 | > 5.12 | 0.904 | > 20 | 0.99 | > 20
30 | TE-15 (oesophagus, suspension) | 0.979 | > 5.12 | 0.44 | 0.838 | 0.913 | > 20
31 | TGBC11TKB (stomach, adherent) | 0.992 | > 5.12 | 0.65 | 3.09 | 0.975 | > 20
32 | TGBC24TKB (biliary tract, adherent) | 0.983 | > 5.12 | 0.774 | 7.33 | 0.97 | > 20
33 | U031 (kidney, adherent) | 0.98 | > 5.12 | 0.692 | 4.4 | 0.984 | > 20
34 | U251 (glioma, adherent) | 0.984 | > 5.12 | 0.287 | 0.324 | 0.959 | > 20
35 | U-87-MG (glioma, adherent) | 0.984 | > 5.12 | 0.684 | 4.5 | 0.959 | > 20
36 | U-118-MG (glioma, adherent) | 0.983 | > 5.12 | 0.694 | 4.81 | 0.964 | > 20
37 | U-698-M (B-cell leukaemia, suspension) | 0.93 | > 5.12 | 0.54 | 1.61 | 0.867 | 18

IC50 is the fitted dose that halves viability relative to control wells, and lower means more sensitive; a fit beyond the top or the lowest dose is shown as a bound at that dose. AUC is the area under the same curve over the 256-fold range up to the top dose, as a fraction; values near 1 show little effect. Any top dose called inferred was derived from the fitted curves, not read from the paper.
